# Results taken from PubChem BioAssay AID1347165 (National Center for Advancing Translational Sciences (NCATS), 2019).
# The whole screen tested about 220,000 compounds, of which about 5,700 (2.6%) were called active. The inconclusive results got no clear call from the source; some entries with a clear call stand among them for comparison. Calls follow the shape of the dose curve; as a rule, active = well fitted inhibition curve with a large enough effect; inconclusive = small, poorly fitted or top-dose-only effect; inactive = no such curve, though single readings can be large or run the other way. Where the call is inconclusive, the potency comes from a doubtful curve fit.
# Biological target: Lysine-specific demethylase 5B (Homo sapiens) (UniProt Q9UGL1)
# UniProt Q9UGL1, sequence (Q9UGL1 whole entry, looked up): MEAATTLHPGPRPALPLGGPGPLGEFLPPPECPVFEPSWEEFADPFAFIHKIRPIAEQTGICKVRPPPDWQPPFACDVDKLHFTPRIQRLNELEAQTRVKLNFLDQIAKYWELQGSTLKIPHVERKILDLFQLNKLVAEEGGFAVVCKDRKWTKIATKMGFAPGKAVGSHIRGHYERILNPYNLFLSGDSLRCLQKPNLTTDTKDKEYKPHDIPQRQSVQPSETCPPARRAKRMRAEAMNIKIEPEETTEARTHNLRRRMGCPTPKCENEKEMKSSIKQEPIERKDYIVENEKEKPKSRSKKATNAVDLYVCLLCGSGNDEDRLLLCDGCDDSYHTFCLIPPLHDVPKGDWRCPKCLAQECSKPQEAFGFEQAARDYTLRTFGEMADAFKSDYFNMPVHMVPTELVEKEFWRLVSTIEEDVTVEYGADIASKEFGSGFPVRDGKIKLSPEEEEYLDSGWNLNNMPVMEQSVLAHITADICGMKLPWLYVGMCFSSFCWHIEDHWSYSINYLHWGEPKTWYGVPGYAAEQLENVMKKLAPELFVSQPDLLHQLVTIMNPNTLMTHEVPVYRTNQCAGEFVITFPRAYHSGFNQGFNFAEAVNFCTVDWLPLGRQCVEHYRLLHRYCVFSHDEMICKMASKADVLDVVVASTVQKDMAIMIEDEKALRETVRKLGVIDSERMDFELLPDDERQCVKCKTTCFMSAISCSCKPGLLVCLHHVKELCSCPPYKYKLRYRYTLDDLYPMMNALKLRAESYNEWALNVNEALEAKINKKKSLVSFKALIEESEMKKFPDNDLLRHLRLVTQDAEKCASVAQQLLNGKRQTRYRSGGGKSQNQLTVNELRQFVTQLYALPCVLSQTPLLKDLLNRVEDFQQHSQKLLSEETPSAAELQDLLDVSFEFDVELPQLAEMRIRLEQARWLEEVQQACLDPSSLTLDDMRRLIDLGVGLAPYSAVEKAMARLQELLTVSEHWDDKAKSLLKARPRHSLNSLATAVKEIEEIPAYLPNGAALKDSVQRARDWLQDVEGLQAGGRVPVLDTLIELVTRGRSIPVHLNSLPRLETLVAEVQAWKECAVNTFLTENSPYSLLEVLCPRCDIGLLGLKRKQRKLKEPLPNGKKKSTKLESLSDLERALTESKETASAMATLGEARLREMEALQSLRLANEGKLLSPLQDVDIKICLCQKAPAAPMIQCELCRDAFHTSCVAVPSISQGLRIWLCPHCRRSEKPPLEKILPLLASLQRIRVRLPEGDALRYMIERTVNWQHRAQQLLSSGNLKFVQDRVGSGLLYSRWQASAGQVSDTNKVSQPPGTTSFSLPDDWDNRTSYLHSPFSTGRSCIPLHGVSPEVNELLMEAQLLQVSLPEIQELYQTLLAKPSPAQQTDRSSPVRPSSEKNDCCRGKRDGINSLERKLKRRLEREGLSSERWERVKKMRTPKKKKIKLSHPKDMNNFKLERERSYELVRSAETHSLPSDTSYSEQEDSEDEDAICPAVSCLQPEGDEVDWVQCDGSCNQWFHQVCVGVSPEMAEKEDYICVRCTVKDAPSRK
# Experiment: Primary screen for KDM5B Histone Demethylases FDH-coupled qHTS; also: nearly all actives have a fitted effect of over 70% in size; as to activity change, negative = inhibition: 0% is about no effect
# Details: FDH-coupled NADH fluorescence (FDH is formaldehyde dehydrogenase); activity change, negative = inhibition: at 57.7 µM (top of the series) unless noted
# How it was run: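 Coupled FDH/NAD⁺ fluorescence readout. KDM5BΔAP 200 nM final; compound titration, 10 min RT preincubation; substrate mix 12.5 µM H3K4me3, 25 µM 2-OG, 50 µM Fe(II), 100 µM ascorbate, 0.25 mM NAD⁺, 0.25 U/mL FDH; ΔRFU over 30 min.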
# Potency is read from the fitted curve at half-maximal effect; tags tell the direction and shape of the fitted curve.
SMILES,Potency,"activity change, negative = inhibition"
CN(C)c1ccc(C(CNC(=O)c2ccccc2)N2CCc3ccccc32)cc1 (stereo not given),"inconclusive: 31.6 µM [inhibitor, single point]",–
Cc1cc(F)ccc1NCc1ccccc1C#N,–,inactive: 12.2%
CCc1ccc(N2CC(c3noc(-c4ccc(N(C)C)cc4)n3)CC2=O)cc1 (stereo not given),active: 31.6 µM,–
O=C(O)Cn1cc(/C=N/Nc2ccc([N+](=O)[O-])cn2)c2ccccc21,"inconclusive: 15.8 µM [inhibitor, partial curve, poor fit]",–
O=C1COc2ccc(-c3ccccc3)nc2CN1Cc1ccccc1,–,inactive: -8.64% [at 86.2 µM]
COc1cc([N+](=O)[O-])cc(/C=N/NC(=O)c2cc(C)nc3ccccc23)c1O,"inconclusive: 5.01 µM [inhibitor, full curve, poor fit]",–
O=C(O)c1ccc(CN2CCC[C@H]2c2nc(-c3ccc(F)cn3)no2)cc1,"inconclusive: 39.8 µM [inhibitor, partial curve, poor fit]",–
CC(=O)N1CCN(Cc2nnc(C(C)(C)C)o2)CC1,–,inactive: 11.8%
O=C(O)C(c1ccc2c(c1)OCCO2)N1CCCN(c2ncccn2)CC1 (stereo not given),"inconclusive: 17.8 µM [inhibitor, single point]",–
CCOc1ccc(C2Cn3nnc(-c4nc(-c5ccccc5Cl)no4)c3CO2)cc1 (stereo not given),"inconclusive: 14.1 µM [inhibitor, partial curve]",–
CCN1CCN(c2ncc3c(n2)CCN(Cc2cc(F)cc(F)c2)C3)CC1,"inconclusive: 17.8 µM [inhibitor, single point]",–
O=C1COc2ccc(-c3ccc4c(c3)OCO4)nc2CN1Cc1ccc(C(F)(F)F)cc1,active: 31.6 µM,–
Cc1cc(Cl)nc(-n2nc(C)cc2C)n1,"inconclusive: 31.6 µM [inhibitor, single point]",–
COc1ccc(-c2nc3scc(CCNS(=O)(=O)c4ccc(C)cc4)n3n2)cc1,"inconclusive: 31.6 µM [inhibitor, partial curve, poor fit]",–
COCCN1CC(C(=O)NCCOc2ccccc2)CCC1=O (stereo not given),–,inactive: -9.11%
Cc1ccc(C2c3cc(OCc4nc(C(=O)N5CCCC5)co4)ccc3CCN2C(=O)C2CC2)cc1 (stereo not given),–,inactive: 3.51%
Cc1ccc(Nc2nc(N)c(C(=O)c3ccccc3Cl)s2)c(C)c1,–,inactive: -14.6%
CCCC(=O)NCC1(N(C)C)CCCCC1,–,inconclusive: -34.2% [inhibitor]
CN(C)C[C@@H]1CN(c2ncccn2)C[C@H]1NS(=O)(=O)c1cc(F)ccc1F,"inconclusive: 28.2 µM [inhibitor, partial curve, poor fit]",–
COCCNc1ccc(-c2noc([C@@H]3CCCN3C3CCOCC3)n2)cn1,"inconclusive: 28.2 µM [inhibitor, partial curve, poor fit]",–
Cc1ccc(Cl)cc1NC(=O)c1cnc(N2CCCCC2)c2ccccc12,–,inconclusive: -39.4% [inhibitor]
O=C(Nn1cnnc1)c1ccccc1Br,–,inactive: -3.16%

SMILES,Potency,"activity change, negative = inhibition"
COc1ccc(C(=O)N[C@@H]2CCC[C@@H]2C(=O)N2CCOCC2)cn1,–,inactive: 7.81%
O=C(Cn1cccc1-c1nc(-c2ccc3c(c2)OCO3)no1)NCc1ccc(F)cc1,"inconclusive: 17.8 µM [inhibitor, single point]",–
COc1cccc(S(=O)(=O)N2CCCN(C)c3ccccc32)c1,"inconclusive: 11.2 µM [inhibitor, partial curve]",–
Cc1ccc(-c2nc(CNS(=O)(=O)C3CC3)[nH]c2-c2ccccn2)cc1,"inconclusive: 35.5 µM [inhibitor, partial curve, poor fit]",–
CN(C)C[C@@H]1CN(Cc2ccccn2)C[C@H]1NC(=O)c1cc(Cl)ccc1F,"inconclusive: 17.8 µM [inhibitor, single point]",–
COc1ccc(CNC(=O)c2ccc(-c3ccc(N4CCSCC4)nc3)cc2)cc1,"inconclusive: 28.2 µM [inhibitor, partial curve, poor fit]",–
O=C(NCC(c1ccc2c(c1)OCO2)N1CCN(c2ccccc2)CC1)c1ccccc1F (stereo not given),"inconclusive: 28.2 µM [inhibitor, single point]",–
Cc1cc(C(F)(F)F)nn1CC(=O)NCC1Cn2cccc2CN1Cc1ccccc1 (stereo not given),"inconclusive: 28.2 µM [inhibitor, partial curve, poor fit]",–
CN(C)CCNC(=O)c1cc2c(n1C)CCN(Cc1ccccc1)C2,"inconclusive: 28.2 µM [inhibitor, single point]",–
O=C(NCc1ccco1)c1ccc2c(c1)n(Cc1ccc(F)cc1)c(=O)c1ccnn12,active: 28.2 µM,–
Cc1ccccc1-c1nc2cnccn2c1NCCC(=O)NCc1ccco1,active: 31.6 µM,–
Cc1cc(C)n2ncc(CN3CCn4nc(C(C)O)cc4C3)c2n1 (stereo not given),"inconclusive: 20 µM [inhibitor, partial curve]",–
CCOc1ccccc1CNC(=O)c1cc2cn(C3CCCC3)cc2s1,"inconclusive: 15.8 µM [inhibitor, partial curve, poor fit]",–
CN1c2cc(C(=O)N3CCN(C4CCCCC4)CC3)ccc2C(=O)N2CCCCC21 (stereo not given),"inconclusive: 11.2 µM [inhibitor, partial curve, poor fit]",–
Cc1c(-c2ccc(Cl)cc2)nc2ccccc2c1C(=O)NC1CCCCCCC1,–,inactive: -6.4%
O=C(O)CCn1ncc2cc(OCC3CCN(c4ncccn4)CC3)ccc21,"inconclusive: 35.5 µM [inhibitor, partial curve, poor fit]",–
CCN1CCN(CCCNC(=O)c2cn3ccnc(-c4ccc(C)cc4)c3n2)CC1,"inconclusive: 17.8 µM [inhibitor, partial curve]",–
Cc1cccn2c(=O)c(/C=C(\C#N)c3nc4ccccc4n3C)c(Oc3ccc(Br)cc3)nc12,"inconclusive: 7.08 µM [inhibitor, partial curve, poor fit]",–
COc1ccc(-c2cc(C(F)(F)F)nc(SCC(=O)NC(C)(C)C)n2)cc1,"inconclusive: 17.8 µM [inhibitor, partial curve, poor fit]",–
COCCNC(=O)[C@@H](C)C1CCc2c(C)cc(OC)c(C)c2[C@@H]1O (stereo not given in full),–,inactive: 25.1% [at 86.2 µM]
CC(C)NC(=O)c1ccccc1Br,–,inactive: 0.106%
Cc1cccc(C)c1Nc1c(-c2ccsc2)nc2ccccn12,"inconclusive: 28.2 µM [inhibitor, partial curve, poor fit]",–

SMILES,Potency,"activity change, negative = inhibition"
Oc1c(Br)cc(/C=N/NC(=S)NCc2ccco2)cc1Br,"inconclusive: 20 µM [inhibitor, partial curve, poor fit]",–
Nc1nccnc1C(=O)NCc1ccccn1,"inconclusive: 28.2 µM [inhibitor, partial curve, poor fit]",–
CCc1ccc(-n2nc(C)c3c(C(=O)Nc4cccc(C(F)(F)F)c4)cc(C)nc32)cc1,"inconclusive: 2.82 µM [inhibitor, full curve, poor fit]",–
Cc1cc(O)c(C(c2ccc(F)cc2)N2CCCCC2)c(=O)n1Cc1ccco1 (stereo not given),"inconclusive: 35.5 µM [inhibitor, single point]",–
Cc1cc(Nc2cccc(C(F)(F)F)c2)nc2ccc(NC(=O)c3ccc(N(C)C)cc3)cc12,"inconclusive: 4.47 µM [inhibitor, full curve, poor fit]",–
CCOC(=O)c1sc(N2C(=O)C(O)=C(C(=O)c3ccco3)C2c2cccc(Cl)c2)nc1C (stereo not given),"inconclusive: 11.2 µM [inhibitor, partial curve, poor fit]",–
COc1nccc(N2CCC(CC(=O)NCc3ccc(F)c(Cl)c3)CC2)n1,–,inactive: 3.35%
CCOC(=O)C(C)Oc1ccc2c(CC)cc(=O)oc2c1C (stereo not given),"inconclusive: 6.31 µM [inhibitor, full curve, poor fit]",–
O=C(O)C1CCc2nnc(C3CCN(C(=O)Cc4ccccc4)CC3)n21 (stereo not given),"inconclusive: 44.7 µM [inhibitor, partial curve, poor fit]",–
COc1ccc(-c2c3c(=O)n(C)c(=O)n(C)c3cn2-c2cccc(C)c2)cc1,"inconclusive: 39.8 µM [inhibitor, single point]",–
Cc1cccc(N2Cc3c(NCCCOC(C)C)ncnc3N(C)CC2=O)c1,"inconclusive: 56.2 µM [inhibitor, partial curve, poor fit]",–
O=c1c2c(CO)c(-c3ccc(F)cc3)nn2ccn1Cc1ccc(OC(F)(F)F)cc1,"inconclusive: 28.2 µM [inhibitor, single point]",–
CC(C)C(CNC(=O)c1nn(C)c(=O)c2ccccc12)N1CCCC1 (stereo not given),"inconclusive: 31.6 µM [inhibitor, single point]",–
Cc1ccc(C(C)C)c(OCC(=O)Nc2c(C(=O)c3ccccc3)oc3ccccc23)c1,"inconclusive: 1.26 µM [inhibitor, partial curve, poor fit]",–
CCOC(=O)c1ccc(NC(=O)CC2SC(c3cc4ccccc4oc3=O)=NC2=O)cc1 (stereo not given),"inconclusive: 25.1 µM [inhibitor, single point]",–
Cc1cccc(-c2nnc(SCC(=O)Nc3cc(F)ccc3C)n2N)c1,–,inactive: 18.4%
O=C(COc1ccc(F)cc1)NC1CCCN(c2ncccn2)C1 (stereo not given),"inconclusive: 28.2 µM [inhibitor, partial curve, poor fit]",–
COc1ccc2[nH]c(=O)c(COC(=O)c3ccc(F)cc3)cc2c1,"inconclusive: 1.78 µM [inhibitor, partial curve, poor fit]",–
Cc1cc(NC(=O)c2ccc3c(c2)N(C)C2CCCCN2C3=O)ccc1Cl (stereo not given),"inconclusive: 31.6 µM [inhibitor, partial curve, poor fit]",–
COc1ccc(NC(=O)CCc2ncc(-c3ccccc3)o2)c(OC)c1,–,inactive: -11.4%
CCn1ncc(CN2CCCCCCNC(=O)[C@@H]3CCC[C@@H]32)c1C,"inconclusive: 31.6 µM [inhibitor, single point]",–
